The whole screen tested about 410,000 compounds, of which about 5,000 (1.2%) were called active. The inconclusive results got no clear call from the source; some entries with a clear call stand among them for comparison. The call rests on the fitted dose curve; in most records, active means well fitted inhibition curve with a large enough effect; inconclusive means small, poorly fitted or top-dose-only effect; inactive means no such curve, though single readings can be large or run the other way. Where the call is inconclusive, the potency comes from a doubtful curve fit.
Assay: qHTS for Inhibitors of TGF-b; further: nearly all actives have a fitted effect of over 65% in size
Settings: HepG2 CAGA-GFP TGF-b/SMAD3 reporter, GFP fluorescence, 18 h, TGF-beta stimulated, 500 pg/mL final; series mostly up to 46.1 µM; activity, negative = inhibition: at the top concentration
Method in brief: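 HEPG2 CAGA-GFP reporter cells (1000/well, DMEM with 1% FBS) received compounds, then recombinant TGF-beta at 500 pg/mL final for 18 hours at 37 degrees C. Per-cell GFP summed per well was normalised to unstimulated and stimulated DMSO controls before curve fitting.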
On the % scale 0 is the no-effect control and ±100 the full control effect; potency means the concentration at half of the fitted maximal effect; tags describe the fitted curve by direction and shape.

| SMILES | Potency | activity, negative = inhibition |
| --- | --- | --- |
| COc1ccc(CCNC(=O)c2ccc(-c3ccc([N+](=O)[O-])cc3)o2)cc1OC | inconclusive: 11.2 µM [inhibitor, partial curve] |  |
| C=CCc1cccc(CNc2ccc(Br)cc2)c1O | inconclusive: 20 µM [inhibitor, single point] |  |
| Cc1ccc(NC(=O)CCNC(=O)c2ccccc2Cl)cc1S(=O)(=O)N1CCCCCC1 | inconclusive: 35.5 µM [inhibitor, single point] |  |
| CCCC(O)c1nc2ccccc2n1CCCOc1ccc(Cl)cc1 (centres undefined) | inconclusive: 10 µM [inhibitor, partial curve, poor fit] |  |
| CN(Cc1ccccc1F)C(=O)CN1CCN(S(=O)(=O)c2ccc3c(c2)OCCCO3)CC1 | inconclusive: 10 µM [inhibitor, partial curve] |  |
| Cc1ccc(NC(=O)CN(C)S(=O)(=O)c2cccs2)c(Br)c1 | inconclusive: 35.5 µM [inhibitor, single point] |  |
| COc1ccc(-c2nnc(SCC(=O)c3ccco3)n2-c2ccccc2)cc1 | inconclusive: 11.2 µM [inhibitor, partial curve, poor fit] |  |
| CCOC(=O)c1cc([N+](=O)[O-])cc([N+](=O)[O-])c1Sc1ncnc2nc[nH]c12 | active: 12.6 µM |  |
| CCCCOC(=O)c1ccc(NC(=O)CN2C(=O)NC3(CCCCCC3)C2=O)cc1 | inconclusive: 35.5 µM [inhibitor, single point] |  |
| Cc1cc(Cl)ccc1NC(=S)N1CCN(Cc2ccccc2)CC1 | inconclusive: 6.31 µM [inhibitor, partial curve, poor fit] |  |
| COc1ccc(-c2sc3cc4c(cc3c2-c2ccc(OCCN3CCCCC3)cc2)OCO4)cc1 |  | inactive: 27.5% |
| CN(C)C1=NCCN1CCCC1CCCCC1 | inconclusive: 0.1 µM [inhibitor, full curve, poor fit] |  |
| Cc1cccc(NC(=S)NCC2CCCO2)c1 (centres undefined) | inconclusive: 6.31 µM [inhibitor, partial curve, poor fit] |  |
| CN(C)c1ccc(/C=C/c2sc3ccccc3[n+]2CCCCBr)cc1 | inconclusive: 14.1 µM [inhibitor, partial curve, poor fit] |  |
| CN(C(=O)CCc1nc(-c2ccccc2F)no1)c1ccc(Cl)cc1 |  | inactive: -6.57% |
| OCc1cccc(-c2cnc3c(Nc4cccc(OC(F)(F)C(F)F)c4)nccn23)c1 | inconclusive: 20 µM [inhibitor, single point] |  |
| O=C1[C@H](Cc2ccccc2)NCC=CC[C@H](c2ccc(Cl)cc2)N1Cc1ccccc1 | active: 17.8 µM |  |
| CCOc1cc(C(N)=O)cc(Cl)c1OCc1ccccc1 |  | inactive: -19.6% |
| Cc1ccc(CNC(=O)C2CCN(c3nc(C)cc(C)n3)CC2)cc1 |  | inactive: -6.63% |
| CC(C(=O)NCCSCc1cccc(Cl)c1)N(c1ccccc1)S(C)(=O)=O (centres undefined) | inactive |  |
| COc1ccc(CCNC(=O)Nc2nnc([C@@H]3C[C@H](O)[C@@H](CO)O3)s2)cc1OC |  | inactive: 13.8% |
| Cc1ccc(NC2=C/C(=N\S(=O)(=O)c3cccs3)c3ccccc3C2=O)c(C)c1 | active: 2.51 µM |  |
| O=C(Nc1ccc2c(c1)OCCO2)NC12CC3CC(CC(C3)C1)C2 | inconclusive: 0.708 µM [inhibitor, partial curve, poor fit] |  |

| SMILES | Potency | activity, negative = inhibition |
| --- | --- | --- |
| O=c1cc(-c2ccc(O)cc2)oc2cc(O)cc(O)c12 | inconclusive: 35.5 µM [inhibitor, single point] |  |
| Cc1ccc(-n2c(C)cc(C(=O)C(=O)Nc3ccccc3)c2C)c(C)c1 | inconclusive: 10 µM [inhibitor, partial curve, poor fit] |  |
| O=C(Nc1ccc(N2CCCC2)cc1)c1cccc(-c2cc3ccccc3oc2=O)c1 | inconclusive: 35.5 µM [inhibitor, single point] |  |
| CC(=O)c1ccc(NC(=O)C2(c3ccccc3)CCOCC2)cc1 |  | inactive: 3.54% |
| O=C(NNC1=C(C(=O)C(F)(F)F)CCC1)c1cccc(O)c1 |  | inactive: -15.8% |
| N#C/C(=N\Nc1ccc(Cl)cc1)C(=N)N1CCCCC1 |  | inactive: -17.6% |
| CCOc1ccc(C(=O)NC(=S)N2CCN(c3ccc(C(F)(F)F)cc3[N+](=O)[O-])CC2)cc1 | inconclusive: 6.31 µM [inhibitor, single point] |  |
| COc1ccc(NC(=O)C2Cc3c(-c4ccccc4Oc4ccccc4)ccnc3O2)cc1 (centres undefined) |  | inactive: -14.9% |
| CC(C)CC1C(=O)N(Cc2cn(Cc3ccco3)nn2)CCS(=O)(=O)N1Cc1ccc(-c2ccccc2)cc1 (centres undefined) | inconclusive: 15.8 µM [inhibitor, single point] |  |
| Cc1ccc(-n2ncc3c2CCCC3NC(=O)CCc2cnccn2)cc1C (centres undefined) | inconclusive: 15.8 µM [inhibitor, single point] |  |
| CC(=O)Nc1ccc(C(=O)OCc2ccc(Cl)cc2)cc1 | inconclusive: 3.98 µM [inhibitor, single point] |  |
| C/C=C/c1ccc(OCC(=O)O)c(OC)c1 |  | inactive: -17.6% |
| Cc1oc(-c2ccccc2F)nc1CN1CCC(C(=O)NCc2cccnc2)CC1 |  | inactive: -13.5% |
| O=C(N/N=C/c1c[nH]c2ccccc12)c1ccn(Cc2ccc(Cl)cc2Cl)n1 | inconclusive: 35.5 µM [inhibitor, partial curve, poor fit] |  |
| Cc1ccc(NC(=O)/C=C\C(=O)N(c2ccc(C(C)C)cc2)C(C(=O)NCc2ccco2)c2ccc(Cl)cc2)cc1 (centres undefined) | inconclusive: 2.24 µM [inhibitor, full curve, poor fit] |  |
| CCC(=O)N1N=C(c2ccc(NS(=O)(=O)c3ccccc3)cc2)CC1c1ccco1 (centres undefined) | inconclusive: 35.5 µM [inhibitor, single point] |  |
| CCSc1ncc(Cl)c(C(=O)N2CCN(c3ccccc3OC)CC2)n1 | inconclusive: 35.5 µM [inhibitor, single point] |  |
| CCOC(=O)N1CCN(C(=O)c2ccc3c(=O)n(-c4ccccc4F)c(=S)[nH]c3c2)CC1 |  | inactive: 1.89% |
| COc1ccc(CCNc2nc(-c3cccnc3)nc3ccccc23)cc1OC |  | inactive: -16.4% |
| CC1=C(C)CC(C(=O)NCc2ccc3c(c2)OCO3)C(C(=O)O)C1 (centres undefined) |  | inactive: -2.95% |
| CCn1c(=NC(=O)C2COc3ccccc3O2)sc2c(C)ccc(OC)c21 (centres undefined) | inconclusive: 22.4 µM [inhibitor, single point] |  |
| COc1ccccc1N1CCN(C(=O)CCC(=O)Nc2nnc(CC(C)C)s2)CC1 |  | inactive: -1.39% |
| COc1cccc(-n2ccnc2SCC(=O)Nc2c(C)cc(C)cc2C)c1 | inconclusive: 10 µM [inhibitor, single point] |  |

| SMILES | Potency | activity, negative = inhibition |
| --- | --- | --- |
| COCCCN(C(=S)Nc1cc(Cl)cc(Cl)c1)C(C)c1ccccn1 (centres undefined) | inconclusive: 11.2 µM [inhibitor, partial curve, poor fit] |  |
| C=CCNc1nc(N)c(C(=O)c2ccc3c(c2)OCO3)s1 | inconclusive: 28.2 µM [inhibitor, single point] |  |
| CN(C)S(=O)(=O)c1cccc(NC(=O)COc2nc3ccccc3nc2N2CCOCC2)c1 |  | inactive: 2.4% |
| CCc1ccc(CN2C(=O)CCC2(C)C(=O)NC2CCCC2)cc1 (centres undefined) |  | inactive: -18.3% |
| Cc1c(Br)c([N+](=O)[O-])nn1CCCC(=O)N1CCN(c2ccccc2)CC1 |  | inactive: 0.698% |
| CC1CCCN(C(=O)c2cc3ccc4cccnc4c3[nH]2)C1 (centres undefined) | inconclusive: 12.6 µM [inhibitor, partial curve, poor fit] |  |
| CCn1cc([N+](=O)[O-])c(C(=O)Nc2ccn(C34CC5CC(CC(C5)C3)C4)n2)n1 | inconclusive: 35.5 µM [inhibitor, single point] |  |
| O=C(Nc1ccccc1Oc1ccsc1C(=O)O)c1ccccc1F |  | inactive: 1.61% |
| Cc1cccc2cc(C#N)c(NCCNC(=O)COc3ccccc3)nc12 |  | inactive: -7.6% |
| Cc1cccc(OCC(=O)Nc2cccc(OCc3cc(=O)n4cccc(C)c4n3)c2)c1 | inconclusive: 3.55 µM [inhibitor, partial curve, poor fit] |  |
| CC(C)N(C(=O)C1CC(=O)OC12CCCCC2)C(C)C (centres undefined) | inconclusive: 17.8 µM [inhibitor, single point] |  |
| Cc1cc2nc(-c3cccc(NC(=O)c4cccc5ccccc45)c3)oc2cc1C |  | inactive: -12.7% |
| Cc1ccc(CNc2nc(-c3cccnc3)nc3ccccc23)cc1 | inconclusive: 35.5 µM [inhibitor, single point] |  |
| O=C(/C=C\c1ccc2c(c1)OCO2)NC1CC(=O)N(c2cccc(F)c2)C1 (centres undefined) | inconclusive: 3.98 µM [inhibitor, partial curve, poor fit] |  |
| Cc1n[nH]c(C)c1S(=O)(=O)N(CC(=O)N1CCc2ccccc21)c1ccc(C(C)C)cc1 | inconclusive: 15.8 µM [inhibitor, single point] |  |
| CCN(CCCNC(=O)CCc1nc(-c2ccc(OC)cc2)no1)c1cccc(C)c1 | inconclusive: 35.5 µM [inhibitor, single point] |  |
| CCOC(=O)c1c(C)[nH]c(C2=NNC(=Nc3ccccc3OC)SC2)c1C |  | inactive: -11.8% |
| COc1ccccc1C=NN=C(NN=Cc1ccccc1OC)NN=Cc1ccccc1OC | inconclusive: 7.94 µM [inhibitor, partial curve, poor fit] |  |
| Cc1cc(-c2ccc(Cl)cc2)c2cnn(C(C)C)c2n1 | inconclusive: 35.5 µM [inhibitor, single point] |  |
| COc1ccc(CCNC(=O)C2CCN(C(=O)c3ccc(Cl)cc3)CC2)cc1OC |  | inactive: -12.4% |
| Cc1ccsc1/C=N\NC(=O)c1cc(C(C)(C)C)[nH]n1 | inconclusive: 14.1 µM [inhibitor, partial curve, poor fit] |  |
| COc1ccc(/C=C2/SC(=O)N(CCNC(=O)C3COc4ccccc4O3)C2=O)cc1 (centres undefined) | inconclusive: 5.01 µM [inhibitor, single point] |  |
| CCCCC(=O)N(C)c1c(CC)nc2c(OCC(=O)c3ccc(Cl)cc3Cl)cccn12 | inconclusive: 25.1 µM [inhibitor, single point] |  |

From PubChem BioAssay AID588855 (National Center for Advancing Translational Sciences (NCATS), 2011)
